± gives the standard deviation of the averaged measurements. The list shows a part of the results.
system: PfAP2-I AP2 domain 3 (GST-tagged); assay: gcPBM binding intensity (ln(normalized median fluorescence intensity)); higher = stronger DNA binding
Procedure, shortened: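 Probes on an Agilent 4 × 180k array were primer-extended, double-stranded and 36 bp long, taken from intergenic genomic regions, with negative controls added. GST-tagged P. falciparum DNA-binding domains from E. coli, about 25 μg on average, were applied to the array for 1 h in 1× PBS containing 1% milk, 0.2 mg/ml BSA, 0.5% salmon testes DNA and 0.03% Triton X-100. Binding intensity, obtained after Alexa488 anti-GST antibody detection and a 488 nm scan, is the highest Masliner-normalised natural-log median intensity across replicate spots of either probe orientation.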

Sequence | gcPBM binding intensity (ln)
ACAGTATCTGGTAGCTGTACGAGTCGTAGAGAGTAG [XGTACX_site2041] | 8.54 ± 0.33
ATTCAGTTATATAATACACACATATATTGACATTAT [CACACA_site2723] | 8.04 ± 0.49
AGGTGCAAAAATAAAACATGCAAAAATAAAAATGAA [TGCATGCA_site502] | 10.9 ± 0.65
TAATAAAAAATATATACACACAAATAAATAAATAAA [CACACA_site4037] | 7.84 ± 0.78
AATAGTCGTGTGCATACACACCTTAACTATAATATA [CACACA_site6636] | 8.83 ± 0.2
AATAATTAAATAAGAGTGCATGAAACAGGAAATTTC | 9.37 ± 0.34
TATTGTTAAAATGAATAATTAAAACAGTAATGAATA [XGTACX_negctrl_site170] | 7.42 ± 0.62
TTAGCAACTATTACTACACACATTTTTATATAACTT [CACACA_site6762] | 7.84 ± 0.59
AAGAAATAAAGCAAAACATGCACTCGAAAATGTTTT [TGCATGCA_site1014] | 8.42 ± 0.4
CGCATGCAATGTTAATGTACATATATATATATATGT [XGTACX_site3316] | 8.54 ± 0.27
TATATATGTTTTTATGTACACACTTTTAACCTAAGA [CACACA_site1149] | 8.03 ± 0.4
ATGTCTAATTTTGATGCACACTTTTGTGCAATTAAA [CACACA_site5589] | 10.2 ± 0.26
GAAAAAACGAAAAAAATACACACCTGAAAAGATATG [CACACA_site887] | 7.46 ± 0.8
ATACATACAAAAATTTGTACATATTTCCAATAATGT [XGTACX_site2658] | 7.75 ± 0.45
AAATTTCCATTTGGGTGTACATGTGAAACTACAAAG [XGTACX_site208] | 8.1 ± 0.51
GCCATAATATGACATACACACACAAAAAAAAAAAAA [CACACA_site8353] | 8.06 ± 0.73
AAACAATTGAATAAATGTACAGATACATTTTTTTAA [XGTACX_site5386] | 7.28 ± 0.37
TATTTATCTATTTTGTTATATAATAAAATAAAATAA [CACACA_negctrl_site281] | 7.56 ± 0.4
AAAAATAAACAAAATTGTACACATTACATACATATA [XGTACX_site966] | 7.7 ± 0.42

Sequence | gcPBM binding intensity (ln)
TATATATATATATGTAGTACTCAATATTGTAGATTA [XGTACX_site3856] | 9.22 ± 0.25
AAATATATGTATATATGTACATATGTGTGCTATCAT [XGTACX_site1604] | 8.565 ± 0.064
TAATTTTTTTTTAATTGTACATGTGAATATATTTCA [XGTACX_site4115] | 7.67 ± 0.35
GTTTACATTTTAAGAAGTACAAAATTTATGGTTAAA [XGTACX_site450] | 7.96 ± 0.45
TGTTCTTTGTTCAGCGCATGTAAAATAAAATAAAAT [TGCATGCA_site629] | 8.21 ± 0.43
TTTTTTTTTGAATACAGTACACAAGTGTTAAGTTTA [XGTACX_site7069] | 7.59 ± 0.57
TATGAATATCTATACACACACATATATATACCCACT [CACACA_site4963] | 8.07 ± 0.61
GATTGATTATATGTGTGTACTTATATGTTAAAAAAA [XGTACX_site4784] | 8.06 ± 0.31
AAAGGTGTCATATATGCACACAAAAGTAACACGCAC [CACACA_site8051] | 10.3 ± 0.2
TTTATTCTTGAGTATTGTACATATGTGTTTGTATAT [XGTACX_site5706] | 7.85 ± 0.31
GAAAGAATAAAATTTACACACATATAAATATACATA [CACACA_site7125] | 7.5 ± 0.42
AGGAGGATGCATATGGCACACATTATGAAACTGTCG [CACACA_site299] | 9.11 ± 1
ACACTAACATCATATCGTACATTTGTTAATTTATAA [XGTACX_site8654] | 8.06 ± 0.4
TATTTATTTTTTTTTGTGCACTTAATATAATCTTAC | 11.07 ± 0.042
TTTTCCCTCTTATTCACACAAAAAAAATAAAATAAA [CACACA_site4656] | 7.86 ± 0.21
TTTTTATTTATATGATACTTATATATATATATATAT [CACACA_negctrl_site462] | 9.39 ± 0.53
TCTTTTAAAAAAATTTGTACATATTTTTTGTATTAT [XGTACX_site67] | 7.79 ± 0.47
TTCTTAATATTGCATGCACACTATATAATAATTGAA [CACACA_site4720] | 8.96 ± 0.28
ATACAAAAGGGGAATACACACACATATATATATATA [CACACA_site8694] | 9.21 ± 0.38

Sequence | gcPBM binding intensity (ln)
AATAAACATAGATGTACACACATATACAGATATATA [CACACA_site5570] | 7.88 ± 0.16
TTGTTCTATATATATGCATGCACGTATGTTAAATTA [TGCATGCA_site659] | 11.3 ± 0.23
TATTAATTTTTATACGCATGTGTATAGTAATATATA [TGCATGCA_site1010] | 7.62 ± 0.42
TCTCATATATTGAATTGTACATATGTTAAAATATAG [XGTACX_site6764] | 7.75 ± 0.36
AAAAATAAAGGATATACACACTAATTCTATAAATAT [CACACA_site7344] | 7.58 ± 0.36
TATAAGTATTAATACACACACAAAATAATAAAAAAA [CACACA_site3481] | 7.95 ± 0.63
GTCTCGATAATGAAAAGTACAAAATAAAAATAATAA [XGTACX_site6471] | 8.14 ± 0.13
TAAAGAATAATACATTCACACAATATTATAAAAATA [CACACA_site5986] | 7.33 ± 0.54
TTGTATGAATTTATTTTTATTGATAATTAATATGTA [TGCATGCA_negctrl_site143] | 7.35 ± 0.48
GAAATGTCATATAATAGTACACACATGAAAATATAA [XGTACX_site6838] | 8.09 ± 0.33
TATGATTAATTACCACAATTGACAAAAAAAAAAAAA [CACACA_negctrl_site336] | 8.13 ± 0.87
AAAAAAAACAGACACACACACATACAAAATATATAT [CACACA_site1449] | 7.89 ± 0.43
TTTAAATACAGACATACACACATACACAGACATATA [CACACA_site4460] | 7.92 ± 0.28
ATATTTTTATGTACTTCAAAAAAAAAGAAAAACAAA [CACACA_negctrl_site970] | 7.9 ± 0.028
CTCTATTGTTAAAAGGTGCTTTTATGATTTTATATA [GTGCAC_site9409] | 9.63 ± 0.38
AAGAGGTTAATGAAATGTACACATATATATATATAT [XGTACX_site1861] | 9.63 ± 0.37
TATAGTTTTGAAAACAAACACACAAAAAAAAAAAAA [CACACA_site1691] | 8.07 ± 0.7
TATGTAACCTGTTTTACACACCCCCACCCCCCTCTT [CACACA_site319] | 10.2 ± 0.11
TTTTTTTTCTATGTGGTGCACATTATTTTTTTTTTT | 10.5 ± 0.42
